SMILES strings stand for the structures. Whole data set: some 5,400 compounds, median “IFI” near 2, cut for the highest 2% near 22. Some of the results follow.

We go through 53 molecules from ChEMBL document CHEMBL1156829.

The assay in a line: NOVARTIS: Inhibition Frequency Index (IFI) - the number of HTS assays where a compound showed > 50% inhibition/induction, expressed as a percentage of the number of assays in which the compound was tested. Format: functional.
`O=C(c1ccccc1)C1NC1c1ccc(Br)cc1` (stereo not drawn) yielded an IFI of 1.56%.
The molecule `CC(=O)OC1(C)CC(C)C(=O)C(C(O)CC2CC(=O)NC(=O)C2)C1` (stereo not drawn) showed an IFI of 22.6%.
The result for `Clc1cccc(CNC2CCN(CCc3ccccc3)CC2)c1` reads 0.781%; that for `CC[C@H]1CN2CC[C@@H]1C[C@@H]2[C@@H](O)c1ccnc2ccc(OC)cc12`, 2.16%.
Under `COc1ccc(/C=C\c2cc[n+](C)cc2)cc1OC` stands 0%; under `COc1ccccc1N1CCN(Cc2cc(C)c(C)cc2O)CC1`, 2.94%; under `CCN1C(=Cc2sc3ccccc3[n+]2CC)[Se]c2ccccc21`, 22.6%.
`O=C(Cn1c2ccccc2c(=O)c2ccccc21)Nc1ccc([N+](=O)[O-])c(Br)c1`: the IFI turned out to be 3.57%.
The result for `C/C(=C\c1csc(C)n1)[C@@H]1C[C@@H]2O[C@@H]2CCC[C@H](C)C(O)[C@@H](C)C(=O)C(C)(C)[C@@H](O)CC(=O)O1` (stereo partly drawn) reads 6.9%; that for `C=CCNC(=S)N1CCc2c([nH]c3ccccc23)C1C(F)(F)F` (stereo not drawn), 2.44%; that for `C[C@@H]1C[C@H]2CC[C@H](O2)[C@H](C)C(=O)O[C@@H](C)C[C@@H]2CC[C@@H](O2)[C@@H](C)C(=O)O[C@H](C)C[C@H]2CC[C@@H](O2)[C@H](C)C(=O)O[C@@H](C)C[C@@H]2CC[C@@H](O2)[C@@H](C)C(=O)O1`, 12.5%.
Under `C=C[C@H]1CN2CC[C@H]1C[C@H]2[C@H](OC(=O)c1ccc(Cl)cc1)c1ccnc2ccccc12` stands 1.04%; under `COc1ccc2nc(NC(=N)N)nc(C)c2c1`, 0%; under `COC(=O)[C@]1(C)CC[C@]2(C)CC[C@]3(C)C4=CC=C5C(=CC(=O)C(O)=C5C)[C@]4(C)CC[C@@]3(C)[C@@H]2C1`, 21.4%.
Under `CCN1CCC(N2CCC(n3c(C4CCC4)nc4cc(F)ccc43)CC2)CC1` stands 2.65%; under `O=C(NNC(=O)c1csnn1)c1ccc(Cl)cc1`, 1%; under `NC(=O)c1ccc2c(c1)N=C(c1cccnc1)N(C1CC1)C2`, 3.66%.
In turn, `CC=C[C@H]1O[C@@](O)([C@@H](C)C(O)C(C)[C@H]2OC(=O)C(OC)=CC(C)=C[C@@H](C)[C@@H](O)[C@@H](C)[C@@H](O)C(C)CC(C)=CC=C[C@@H]2OC)C[C@@H](O[C@H]2C[C@@H](O)[C@H](OC(N)=O)[C@@H](C)O2)[C@@H]1C` (stereo partly drawn) registered an IFI of 15.5%.
Under `CC(Cc1ccccc1Sc1ccccc1O)N(C)C` (stereo not drawn) stands 7.14%.
With `c1ccc(C[n+]2ccc(-c3nc4ccccc4s3)cc2)cc1`, the IFI turned out to be 0.971%.
Under `CS/C(Cl)=C(/NC(C)=O)[P+](c1ccccc1)(c1ccccc1)c1ccccc1` stands 5.34%; under `C=C[C@H]1CN2CC[C@H]1C[C@H]2[C@H](OC(=O)CC)c1ccnc2ccccc12`, 1.87%.
Under `C=C[C@H]1CN2CC[C@H]1C[C@@H]2[C@@H](OC(=O)Cc1ccccc1)c1ccnc2ccccc12` stands 0.935%.
The result for `CC=C[C@H]1O[C@@](O)([C@@H](C)C(O)C(C)[C@H]2OC(=O)C(OC)=CC(C)=C[C@@H](C)[C@H](O)C(CC)[C@@H](O)[C@H](C)CC(C)=CC=C[C@@H]2OC)C[C@@H](O[C@H]2C[C@@H](O)[C@H](OC(N)=O)[C@@H](C)O2)[C@@H]1C` (stereo partly drawn) reads 17.5%; that for `O[Si](CCCN1CCCCC1)(c1ccccc1)C1CCCCC1` (stereo not drawn), 2.78%.
In turn, `CC(C)[C@@]1(NC(=O)[C@@H]2C[C@@H]3c4cccc5[nH]cc(c45)C[C@H]3N(C)C2)O[C@@]2(O)[C@@H]3CCCN3C(=O)[C@H](Cc3ccccc3)N2C1=O` returned an IFI of 0.571%.
`CCC(C)N1CCN(Cc2cccc(OC)c2OC)CC1` (stereo not drawn) returned an IFI of 3.17%.
Under `CCn1nc(/C=C/c2ccccc2)nc2c(=O)n(C)c(=O)nc1-2` stands 16.7%.
Under `COC1=CC(C)=C[C@@H](C)[C@@H](O)[C@H](C)CC(C)=CC=C[C@H](OC)[C@@H](C(C)C(O)[C@H](C)[C@@]2(O)C[C@@H](O)[C@H](C)[C@@H](C(C)C)O2)OC1=O` (stereo partly drawn) stands 19.6%.
The molecule `CN1CC=C(/C=C/c2c[nH]c3ccccc23)CC1` yielded an IFI of 0%.
`NC(=O)CN1CC(O)CC1=O` (stereo not drawn) displayed an IFI of 0%.
The result for `CN1C2CCC1/C(=C\c1ccsc1)C(=O)/C2=C\c1ccsc1` reads 0%.
Under `O=C(c1ccccc1)c1cc(Cl)ccc1NCCBr` stands 0%; under `OP1(O)=NP(O)(O)=NP(O)(O)=NP(O)(O)=N1`, 1.51%; under `C=CC12CCN(CC1)C(C(O)c1ccnc3ccc(OC)cc13)C2` (stereo not drawn), 0%.
Regarding `CC=C[C@H]1O[C@@](O)([C@H](C)C(O)C(C)[C@@H]2OC(=O)C(OC)=CC(C)=C[C@H](C)[C@H](O)[C@H](CC)[C@H](O)C(C)CC(C)=CC=C[C@H]2OC)C[C@@H](O[C@@H]2C[C@H](O)[C@@H](OC(N)=O)[C@H](C)O2)[C@@H]1C` (stereo partly drawn), the IFI came to 15%.
Under `CC1=CC(=O)OC[C@]23CCC(C)=C[C@H]2O[C@@H]2C[C@@H](OC(=O)C=CC=CC(=O)OCC1)[C@@]3(C)[C@]21CO1` stands 22.6%; under `C[C@@H]1C[C@@H]([C@H](O)CC2CC(=O)NC(=O)C2)C(=O)[C@@H](C)C1`, 19.7%; under `CCOc1ccc(N2C(=O)NC(=O)/C(=C\c3cn(C(C)=O)c4ccccc34)C2=O)cc1`, 4.51%.
The result for `O=C(CN1CCCC1)Nc1ccc(Cc2ccc(NC(=O)CN3CCCC3)cc2)cc1` reads 1.07%; that for `CC1=CC(=O)OC[C@]23C[C@H](O)C(C)=C[C@H]2O[C@@H]2C[C@@H](OC(=O)C=CC=CC(=O)OCC1)[C@@]3(C)[C@]21CO1`, 22.6%.
Under `O=C1c2ccccc2-c2nc3nnnn3nc21` stands 42.9%.
Turning to `CC(C)NC(=O)c1cn(Cc2ccccc2)cc(C(=O)NCCc2nc3ccccc3[nH]2)c1=O`, the IFI turned out to be 4.54%.
The result for `CN1CCN(c2ccc(NC(=O)Oc3ccccc3)cc2)CC1` reads 1.21%; that for `C[C@@H]1C[C@@H](C)C(=O)[C@@H](C(O)CC2CC(=O)NC(=O)C2)C1` (stereo partly drawn), 23.4%.
Under `CCOc1ccc(C2c3[nH]c4ccccc4c3CCN2C(=O)c2cc3cc(Br)ccc3o2)cc1` (stereo not drawn) stands 1.16%; under `Oc1ccccc1C=Nc1ccccc1[Te]c1ccccc1N=Cc1ccccc1O`, 8.21%; under `Cc1nc(-c2ccccn2)nc(NCCc2ccccc2)c1Cl`, 5.41%.
Turning to `C=C[C@H]1CN2CC[C@H]1C[C@H]2[C@H](OC(C)=O)c1ccnc2ccccc12`, the IFI was determined as 1.89%.
The molecule `CC(Cc1ccccc1)NCCCCCNC(C)Cc1ccccc1` (stereo not drawn) displayed an IFI of 1.85%.
The result for `CC1CCC2C(C)C(=O)OC3OC4(C)CCC1C32OO4` (stereo not drawn) reads 7.14%; that for `Cc1ccc(NC=C2C(=O)NC(=S)NC2=O)cc1`, 0%.
Under `COc1ccc(-c2nc3ccccc3n2C2CCN(Cc3ccc(C)o3)CC2)cc1OC` stands 0.962%.
